Laboratory results from the supplement of paper PMC4604168 (melanoma cell lines).
Some of the results follow. Single values are uncertain, as repeats are few or missing.

tested on: WM3619; experiment: cell count relative to DMSO control; melanoma cells; higher = more viable cells; conditions: library dose: standard library concentration; 72 h
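Also: cells treated in 1,536-well plates, then fixed and DAPI-stained, with nuclei counted from automated high-throughput microscope images.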

SMILES	cell count
C[C@]1(O)C[C@@H](c2nc(-c3ccc4ccc(-c5ccccc5)nc4c3)c3c(N)nccn32)C1 + Nc1ncn([C@H]2C[C@H](O)[C@@H](CO)O2)c(=O)n1 [decitabine] (first compound 2 µM, partner dose 0.5 µM)	60.7%
CCN(CC)CCNC(=O)c1c(C)[nH]c(/C=C2\C(=O)Nc3ccc(F)cc32)c1C [sunitinib] + O=C(O)[C@@H]1[O][Sb](=[O])([O][Sb]2(=[O])[O][C@H]([C@H](O)CO)[C@H](O)[C@H](C(=O)O)[O]2)[O][C@H]([C@H](O)CO)[C@@H]1O [stibogluconate] (first compound 2 µM, partner dose 10 µM)	70.2%
CCN(CC)CCNC(=O)c1c(C)[nH]c(/C=C2\C(=O)Nc3ccc(F)cc32)c1C [sunitinib] + Cn1c(=O)n(-c2ccc(C(C)(C)C#N)cc2)c2c3cc(-c4cnc5ccccc5c4)ccc3ncc21 [NVP-BEZ235] (first compound 2 µM, partner dose 0.02 µM)	70%
CCN(CC)CCNC(=O)c1c(C)[nH]c(/C=C2\C(=O)Nc3ccc(F)cc32)c1C [sunitinib] + Cc1nc(Nc2ncc(C(=O)Nc3c(C)cccc3Cl)s2)cc(N2CCN(CCO)CC2)n1 [dasatanib] (first compound 2 µM, partner dose 0.02 µM)	79.6%
COc1cc([C@@H]2c3cc4c(cc3[C@@H](O[C@@H]3O[C@@H]5CO[C@@H](C)O[C@H]5[C@H](O)[C@H]3O)[C@H]3COC(=O)[C@H]23)OCO4)cc(OC)c1O [etoposide] + O=C(O)c1ccc2c(c1)nc(Nc1cccc(Cl)c1)c1ccncc12 [CX4945] (first compound 0.1 µM, partner dose 2 µM)	62.3%
COc1cc([C@@H]2c3cc4c(cc3[C@@H](O[C@@H]3O[C@@H]5CO[C@@H](C)O[C@H]5[C@H](O)[C@H]3O)[C@H]3COC(=O)[C@H]23)OCO4)cc(OC)c1O [etoposide] + CCCCCCCCCCCCCCCCCCOP(=O)([O-])OC1CC[N+](C)(C)CC1 [Perifosine] (first compound 0.1 µM, partner dose 2 µM)	96%
Cn1cnc2c(F)c(Nc3ccc(Br)cc3Cl)c(C(=O)NOCCO)cc21 [selumetinib] + CN(c1ncccc1CNc1nc(Nc2ccc3c(c2)CC(=O)N3)ncc1C(F)(F)F)S(C)(=O)=O [PF562271] (first compound 0.075 µM, partner dose 0.4 µM)	76.7%
COc1cc([C@@H]2c3cc4c(cc3[C@@H](O[C@@H]3O[C@@H]5CO[C@@H](C)O[C@H]5[C@H](O)[C@H]3O)[C@H]3COC(=O)[C@H]23)OCO4)cc(OC)c1O [etoposide] + O=C(/C=C/c1cccnc1)NCCCCC1CCN(C(=O)c2ccccc2)CC1 [FK866] (first compound 0.1 µM, partner dose 0.05 µM)	69.3%
Cn1cnc2c(F)c(Nc3ccc(Br)cc3Cl)c(C(=O)NOCCO)cc21 [selumetinib] + C[C@]1(c2nc3c(C(N)=O)cccc3[nH]2)CCCN1 [Veliparib] (first compound 0.075 µM, partner dose 7 µM)	65.4%
Cn1cnc2c(F)c(Nc3ccc(Br)cc3Cl)c(C(=O)NOCCO)cc21 [selumetinib] + COCC[n+]1c2c(n(Cc3cnccn3)c1C)C(=O)c1ccccc1C2=O [YM155] (first compound 0.075 µM, partner dose 0.002 µM)	59.3%
COc1cc([C@@H]2c3cc4c(cc3[C@@H](O[C@@H]3O[C@@H]5CO[C@@H](C)O[C@H]5[C@H](O)[C@H]3O)[C@H]3COC(=O)[C@H]23)OCO4)cc(OC)c1O [etoposide] + COc1ccc(Cl)c(Nc2nc3ccccc3nc2NS(=O)(=O)c2cccc(NC(=O)C(C)(C)N)c2)c1 [XL147] (first compound 0.1 µM, partner dose 4 µM)	91.6%
C[C@]1(O)C[C@@H](c2nc(-c3ccc4ccc(-c5ccccc5)nc4c3)c3c(N)nccn32)C1 + O=C(O)[C@@H]1[O][Sb](=[O])([O][Sb]2(=[O])[O][C@H]([C@H](O)CO)[C@H](O)[C@H](C(=O)O)[O]2)[O][C@H]([C@H](O)CO)[C@@H]1O [stibogluconate] (first compound 2 µM, partner dose 10 µM)	132%
Cn1cnc2c(F)c(Nc3ccc(Br)cc3Cl)c(C(=O)NOCCO)cc21 [selumetinib] + Cn1c(Nc2ccc(C(F)(F)F)cc2)nc2cc(Oc3ccnc(-c4ncc(C(F)(F)F)[nH]4)c3)ccc21 [CHIR265] (first compound 0.075 µM, partner dose 0.4 µM)	15.4%
CCN(CC)CCNC(=O)c1c(C)[nH]c(/C=C2\C(=O)Nc3ccc(F)cc32)c1C [sunitinib] + CC(=O)c1c(C)c2cnc(Nc3ccc(N4CCNCC4)cn3)nc2n(C2CCCC2)c1=O [palbociclib] (first compound 2 µM, partner dose 0.2 µM)	68.7%
Cn1cnc2c(F)c(Nc3ccc(Br)cc3Cl)c(C(=O)NOCCO)cc21 [selumetinib] + COc1ccc(Cl)c(Nc2nc3ccccc3nc2NS(=O)(=O)c2cccc(NC(=O)C(C)(C)N)c2)c1 [XL147] (first compound 0.075 µM, partner dose 4 µM)	57.8%
C[C@]1(O)C[C@@H](c2nc(-c3ccc4ccc(-c5ccccc5)nc4c3)c3c(N)nccn32)C1 + CC(=O)c1c(C)c2cnc(Nc3ccc(N4CCNCC4)cn3)nc2n(C2CCCC2)c1=O [palbociclib] (first compound 2 µM, partner dose 0.2 µM)	53.1%
C[C@]1(O)C[C@@H](c2nc(-c3ccc4ccc(-c5ccccc5)nc4c3)c3c(N)nccn32)C1 + CNC(=O)c1cc(Oc2ccc(NC(=O)Nc3ccc(Cl)c(C(F)(F)F)c3)cc2)ccn1 [sorafenib] (first compound 2 µM, partner dose 2 µM)	106%
CCN(CC)CCNC(=O)c1c(C)[nH]c(/C=C2\C(=O)Nc3ccc(F)cc32)c1C [sunitinib] + CC(C)C[C@H](NC(=O)[C@H](Cc1ccccc1)NC(=O)c1cnccn1)B(O)O [Bortezomib] (first compound 2 µM, partner dose 0.005 µM)	5.11%
C[C@]1(O)C[C@@H](c2nc(-c3ccc4ccc(-c5ccccc5)nc4c3)c3c(N)nccn32)C1 + Clc1ccc(Nc2nnc(Cc3ccncc3)c3ccccc23)cc1 [vatalanib] (first compound 2 µM, partner dose 10 µM)	60.2%
C[C@]1(O)C[C@@H](c2nc(-c3ccc4ccc(-c5ccccc5)nc4c3)c3c(N)nccn32)C1 + Cn1nnc2c(C(N)=O)ncn2c1=O [temozolomide] (first compound 2 µM, partner dose 10 µM)	63.8%
C[C@]1(O)C[C@@H](c2nc(-c3ccc4ccc(-c5ccccc5)nc4c3)c3c(N)nccn32)C1 + Cn1c(Nc2ccc(C(F)(F)F)cc2)nc2cc(Oc3ccnc(-c4ncc(C(F)(F)F)[nH]4)c3)ccc21 [CHIR265] (first compound 2 µM, partner dose 0.4 µM)	54.4%
Cn1cnc2c(F)c(Nc3ccc(Br)cc3Cl)c(C(=O)NOCCO)cc21 [selumetinib] + NC(=O)c1ccc(N(C(N)=O)c2c(F)cccc2F)nc1-c1ccc(F)cc1F [VX702] (first compound 0.075 µM, partner dose 2 µM)	72%
Cn1cnc2c(F)c(Nc3ccc(Br)cc3Cl)c(C(=O)NOCCO)cc21 [selumetinib] + CC(=O)O[C@@]12CO[C@@H]1C[C@H](O)[C@@]1(C)C(=O)[C@H](O)C3=C(C)[C@@H](OC(=O)[C@H](O)[C@@H](NC(=O)OC(C)(C)C)c4ccccc4)C[C@@](O)([C@@H](OC(=O)c4ccccc4)[C@H]21)C3(C)C [Docetaxel] (first compound 0.075 µM, partner dose 0.0005 µM)	31.2%
Cn1cnc2c(F)c(Nc3ccc(Br)cc3Cl)c(C(=O)NOCCO)cc21 [selumetinib] + Clc1ccc(Nc2nnc(Cc3ccncc3)c3ccccc23)cc1 [vatalanib] (first compound 0.075 µM, partner dose 10 µM)	75.5%
COc1cc([C@@H]2c3cc4c(cc3[C@@H](O[C@@H]3O[C@@H]5CO[C@@H](C)O[C@H]5[C@H](O)[C@H]3O)[C@H]3COC(=O)[C@H]23)OCO4)cc(OC)c1O [etoposide] + Cc1ccc(Nc2nccc(N(C)c3ccc4c(C)n(C)nc4c3)n2)cc1S(N)(=O)=O [Pazopanib] (first compound 0.1 µM, partner dose 2 µM)	68.7%
CCN(CC)CCNC(=O)c1c(C)[nH]c(/C=C2\C(=O)Nc3ccc(F)cc32)c1C [sunitinib] + CNC(=O)c1cc(Oc2ccc(NC(=O)Nc3ccc(Cl)c(C(F)(F)F)c3)cc2)ccn1 [sorafenib] (first compound 2 µM, partner dose 2 µM)	70.8%
Cn1cnc2c(F)c(Nc3ccc(Br)cc3Cl)c(C(=O)NOCCO)cc21 [selumetinib] + Nc1ccn([C@@H]2O[C@H](CO)[C@@H](O)C2(F)F)c(=O)n1 [gemcitabine] (first compound 0.075 µM, partner dose 0.002 µM)	44%
